Ten molecules from the antibiotic and cytotoxicity screens of Wong et al. (2023) can be followed below.

Each structure is given as a SMILES string. Some of the results follow.

The assay has as its system S. aureus RN4220. The experiment in a line: growth inhibition call (relative growth <= 0.2). As to conditions: 50 µM.
For the molecule `Cc1cc(C(=O)Nc2cccc3c2O[C@H](CN(C)Cc2ccccc2)[C@H](C)CN([C@@H](C)CO)C3=O)n(C)n1`, the growth inhibition call is “inactive”.

Regarding `COC(=O)[C@H]1[C@H](C(=O)O)[C@@]2(C(=O)Nc3ccc(C#Cc4ccc(OC)cc4)cc32)[C@@H](c2ccccc2)N1C`, the growth inhibition call was “inactive”.

On to `CCOC(=O)[C@H]1[C@@H]2[C@@H](Cc3ccccc3N)[C@@H](C(=O)OCC)N(c3ccc(OC)cc3)C(=O)[C@@]23C=C[C@@H]1O3`, for which the growth inhibition call is “inactive”.

With `COc1cccc(S(=O)(=O)Nc2ccc3c(c2)[C@H]2C[C@@H](CC(=O)N4CCCCC4)O[C@H](CO)[C@H]2O3)c1`, the growth inhibition call is “inactive”.

With `Cc1noc(C)c1S(=O)(=O)N(C)C[C@@H]1OCCCC[C@@H](C)Oc2ccc(N(C)C)cc2C(=O)N([C@H](C)CO)C[C@H]1C`, the growth inhibition call is “inactive”.

On to `C[C@@H]1CCCCO[C@H](CN(C)C(=O)C2CCCCC2)[C@@H](C)CN([C@@H](C)CO)C(=O)c2cc(NC(=O)c3ccccc3)ccc2O1`, for which the growth inhibition call is “inactive”.

For `O=c1/c(=C/c2cccc(Cl)c2)c2cccc3cccc1c32`, the growth inhibition call is “inactive”.

As for `C[C@@H]1CCCCO[C@@H](CN(C)C(=O)Nc2cccc3ccccc23)[C@@H](C)CN([C@@H](C)CO)C(=O)c2cc(NC(=O)C3CCCCC3)ccc2O1`, the growth inhibition call was “inactive”.

`C[C@H](CO)N1C[C@H](C)[C@H](CN(C)C(=O)C2CCOCC2)Oc2ncc(C#CCc3ccccc3)cc2C1=O`: the growth inhibition call is “inactive”.

In the case of `C[C@@H]1CN([C@@H](C)CO)C(=O)Cc2cc(NC(=O)Nc3ccc(F)cc3)ccc2O[C@@H]1CN(C)Cc1ccc(C(=O)Nc2ccccc2N)cc1`, the growth inhibition call is “inactive”.
